Assay results taken from PubChem BioAssay AID1346428 (National Center for Advancing Translational Sciences (NCATS), 2018).
“And” between values parts separate entries of the source, which are not always exact repeats. Equal entries are not always repeated. The campaign covered roughly 48,000 compounds. About 1,200 (2.5%) were called active. Not shown: some 2% with an inconclusive outcome.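 The calls were made as follows: active = activation of at least 60% and not above a set upper limit (about 1 call in 100 departs from these limits); inconclusive = activation of 40% to 60%, or above that upper limit; inactive = activation under 40%.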 Some of the results follow.

What follows are molecules tested against Probable G-protein coupled receptor 32 (Homo sapiens) (UniProt O75388) (assay: qHTS for Agonists of Human Resolvin D1 Receptor DRV1). Conditions: CHO-K1 GPR32 beta-arrestin PathHunter luminescence, 90 min; at 76.9 µM; hits give high values; zero percent set by DMSO-only wells.
Method in brief: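 Agonism was scored by beta-Gal fragment complementation (chemiluminescent read, 1 h detection at ambient temperature) reporting beta-arrestin binding to GPR32 in engineered CHO-K1 cells. Compound treatment lasted 90 min at 37 C, normalized to a DMSO basal control.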
Also: 0% is about no effect.

Chain of UniProt O75388 (O75388 whole entry, looked up, the tested form may be a part): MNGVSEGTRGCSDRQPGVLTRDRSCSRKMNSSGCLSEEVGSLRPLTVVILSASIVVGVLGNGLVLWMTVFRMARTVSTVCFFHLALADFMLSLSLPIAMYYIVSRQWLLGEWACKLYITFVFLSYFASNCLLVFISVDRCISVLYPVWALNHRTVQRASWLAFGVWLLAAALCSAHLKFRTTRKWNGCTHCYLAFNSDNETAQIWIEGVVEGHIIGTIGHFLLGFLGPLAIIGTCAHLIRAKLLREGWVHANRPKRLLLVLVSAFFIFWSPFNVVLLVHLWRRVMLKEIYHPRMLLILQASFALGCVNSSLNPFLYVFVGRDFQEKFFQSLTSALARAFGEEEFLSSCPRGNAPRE

activation, inactive:
Cc1cc(C)c(NC(=O)CN(C)S(=O)(=O)c2ccc3c(c2)c(=O)n(C)c(=O)n3C)c(C)c1 -12.1%
CCC1=C(c2ccc(C)cc2)S(=O)(=O)N=C1N1CCC(C(=O)NCc2ccc(C)cc2)CC1 -20.1%
Cc1ccc(NC(=O)CSc2nccn2Cc2ccc3c(c2)OCO3)c(C)c1 -14.3%
c1cnc(N2CCN(Cc3ccc4c(c3)OCO4)CC2)nc1 -9.97% and -2.02%
COc1cc(NS(=O)(=O)c2ccc(NC(=O)c3ccc(OC)c(Br)c3)cc2)nc(OC)n1 44.8%
CCc1ccc(S(=O)(=O)n2ccnc2)cc1 11.8%
COCCn1c(=NC(=O)c2ccc3c(c2)OCCO3)sc2cc(NC(C)=O)ccc21 -1.88%
Cc1ccc(-c2nn3c(=O)cc(CN4CCN(C(=O)c5ccc(C(C)(C)C)cc5)CC4)nc3s2)cc1 -0.412%
O=C(Nc1ccc(F)cc1F)N1CCc2c(sc3c2CCCC3)C1c1ccc(F)cc1 (configuration not stated) 5.67%
O=C(CC1C(=O)N(c2ccccc2)C(=O)N1CCC1=CCCCC1)Nc1ccc(F)cc1 (configuration not stated) 1.65%
CCCN1CCN(CCNC(=O)Nc2ccc(OC)cc2OC)CC1 -9.46%
CC(C)C[C@H](NC(=O)[C@H](O)[C@H](N)Cc1ccccc1)C(=O)O -5.17%
COCCNC(=O)Cn1nc(N2CCN(c3ccccc3OC)CC2)ccc1=O -0.183%
CCOc1ccc(NC(=O)N2CCN(S(=O)(=O)c3ccc4c(ccn4C)c3)CC2)cc1 4.82%
COc1ccccc1N(CC(=O)NCCSCc1ccccc1)S(=O)(=O)c1ccc(C)cc1 -7.75%
Cc1ccccc1NC(=O)CSc1nc(-c2ccccc2C)nc2cc(=O)[nH]n12 -32.4%
COc1ccc(NC(=O)Cn2c(=O)n(C(C)C)c(=O)c3oc4ccccc4c32)cc1Cl -10.7%
O=C1CN(C(=O)Cc2ccc(F)cc2)C(c2ccccc2)c2cc(Cl)ccc2N1 (configuration not stated) -26%
CC(=O)N1CCN(c2csc3ccc(F)cc3c2=O)CC1 -19.1%
CCc1ccc(C(=O)c2cn(CC(=O)Nc3ccc(F)cc3)c3ccc(OC)cc3c2=O)cc1 0.177%
Cc1nn(-c2ccccc2)c(OC(=O)C(C)C)c1Sc1ccccc1 -2.37%
CCc1ccccc1N(C)C(=O)Cc1c(C(=O)O)c(C)cn1C 3.35%
Brc1cccc(CNCCSc2nnnn2-c2ccccc2)c1 -13.1%
COc1ccc(-c2cc(C(C)=O)c(C)n2CCC(=O)NCc2ccccc2OC)cc1 -25.8%
Cc1ccc(NC(=O)Cc2ccc(-n3c(C)nc4cccnc43)cc2)cc1C 0.105%
Cc1cc(C)cc(OCC(=O)NCCc2nc3ccccc3[nH]2)c1 -9.63%
Cc1cc(C)c(NC(=O)C(C)n2nc(-c3ccc(C)c(C)c3)ccc2=O)c(C)c1 (configuration not stated) -1.53%
CCCCOc1ccc(S(=O)(=O)Nc2ccc(-c3ccc(N4CCCCCC4)nn3)cc2)cc1 -2.41%
COc1cccc(CNC(=O)CCc2cn(Cc3ccccc3Cl)c3ccccc23)c1 -14.3%
Cc1ccc(Cl)cc1NC(=O)C(C)n1nnc2sc(-c3ccccc3)cc2c1=O (configuration not stated) -6.84%
CCOC(=O)c1cc(-c2ccccc2)n(CCCC(=O)Nc2ccc(C(C)C)cc2)c1C -24.4%
COC(=O)c1cccc(-n2c(CCC(=O)O)ccc2-c2ccc(OC)cc2)c1 -24.7%
O=C(COc1ccc2oc3c(c2c1)CCCC3)Nc1ccc(Br)cc1 5.81%
CCOC(=O)c1c(C)oc2ncnc(N3CCN(c4ccccc4OC)CC3)c12 -25.9%
COc1ccc(Cn2c(SCc3ccc(C(=O)NC4CCCC4)cc3)nc3ccncc32)cc1 -39.3%
CCOc1ccc(NC(=O)CSc2nccn2Cc2ccco2)cc1 -14.5%
COc1ccc(-c2nc3ccccc3s2)cc1NC(=O)COc1ccc(C)cc1 -4.64%
COc1ccc(OCC(=O)OCc2cc(=O)n3cc(C)sc3n2)cc1 -11%
CCC1CCCCN1S(=O)(=O)c1ccc(C(=O)Nc2sc3c(c2C(=O)NC)CCC3)cc1 (configuration not stated) -8.2%
CCOCCCN1C(=O)CN(C2CCCCCC2)C(=O)C1c1ccc(OC(C)C)c(OC)c1 (configuration not stated) -21.4%
CCc1ccccc1NC(=O)c1ccc2c(O)c(S(=O)(=O)c3ccccc3)c(=O)[nH]c2c1 -25.2%
COc1ccccc1CNC(=O)c1oc2ccc(S(=O)(=O)N3CCCCC3)cc2c1C 4.84%
COc1ccc(NC(=O)c2cc3nc(-c4ccc(C)c(C)c4)cc(C(F)(F)F)n3n2)cc1 -6.64%
Cc1ccc(CSc2ncc(Cl)c(C(=O)NCCc3ccc(S(N)(=O)=O)cc3)n2)cc1 39.7%
CCOC(=O)C1CCN(C(=O)CCS(=O)(=O)c2cc3c(cc2Cl)NC(=O)CO3)CC1 -13.6%
CC(C)(C)NCC(O)COc1cccc2c1CCC(=O)N2 (configuration not stated) -5.81%
COc1ccc(NC(=O)CSc2nc(-c3ccc(OC)cc3)[nH]c2-c2ccc(OC)cc2)cc1 -18%
Cc1ccc(N(CC(=O)NCc2ccc(Cl)cc2)S(=O)(=O)N(C)C)cc1 13.2%
COc1ccc(-c2cc(OC(=O)c3ccc(Cl)cc3)c3c(C)oc(C)c3c(=O)c2)cc1 -2.43%
Cc1cccc(CN2C(=O)c3ccccc3S(=O)(=O)c3ccc(C(=O)NCCC4=CCCCC4)cc32)c1 -21.4%
COC(=O)c1ccc(Nc2nnc(-c3ccc(C)c(S(=O)(=O)N4CCN(C)CC4)c3)c3ccccc23)cc1 -33.4%
Cc1ccc(C(=O)Nc2cccc(-c3nc4cccnc4s3)c2C)cc1 5.24%
COc1cc(Cl)c(C)cc1NC(=O)c1sc2nc3n(c(=O)c2c1C)CCCCC3 7.24%
COc1ccc(OC)c(NC(=O)CSC2=Nc3ccccc3C3=NC(CC(=O)NCc4ccc5c(c4)OCO5)C(=O)N23)c1 (configuration not stated) 4.38%
Cc1ccccc1Cn1c(=O)n(Cc2ccc(Cl)cc2)c(=O)c2cccnc21 -7.36%
O=c1cc(N2CCN(c3ccc(F)cc3)CC2)[nH]c(=O)n1-c1ccc(Br)cc1 -4.6%
Cn1c(SCc2ccc(C(F)(F)F)cc2)nc2c([nH]c3ccccc32)c1=O 1.32%
CCOC(=O)c1c(NC(=O)c2nc(SC(C)C)ncc2Cl)sc2c1CCCC2 -1.05%
COc1cc(C(=O)NCC(c2cccnc2)N2CCc3ccccc32)cc(OC)c1OC (configuration not stated) -28.2%
CN(C)c1ccc(C(CNS(=O)(=O)c2ccccc2)N2CCc3ccccc32)cc1 (configuration not stated) -28.3%
COc1cc(NC(=O)N2CCC(CN3CCCC3)CC2)cc(OC)c1OC -14.7%
CC(=O)c1c(C)oc2c(Cl)cc(NS(=O)(=O)c3ccc(Cl)cc3)cc12 16.4%
CCN(CC)C(=O)Cn1c(=O)n(Cc2ccc(C(=O)NCc3ccccc3Cl)cc2)c(=O)c2ccccc21 -2.76%
CCOC(=O)c1c(-c2ccc(Br)cc2)csc1NC(=O)c1ccccc1F -6.42%
COc1cc(C2C(=O)N(C3CCCCC3)CC(=O)N2Cc2ccc(C)cc2)ccc1OC(C)C (configuration not stated) -23.9%
O=C(CSc1nccn1-c1ccc(F)cc1)Nc1ccc(OC(F)(F)F)cc1 3.27%
N#C/C(=C\c1ccc(-c2cc(Cl)ccc2Cl)o1)C(=O)Nc1cccc2ncccc12 6.4%
O=C1[C@@H]2CSC(c3ccc(C(F)(F)F)cc3)N2C(=O)N1c1ccccc1 (some centres not stated) -8.16%
CCCNc1c(NC(=O)c2ccc(OCCC)cc2)c(=O)oc2ccccc12 -2.64%
O=C1CN(C(=O)c2ccccc2C(F)(F)F)C(c2ccccc2)c2cc(F)ccc2N1 (configuration not stated) -17.1%
COc1cc2c(cc1OC)C(COc1ccc3c(C)cc(=O)oc3c1)N(C(=O)c1ccc(Cl)cc1)CC2 (configuration not stated) -8.27%
Cc1ccc2c(C)c(C(=O)N(Cc3ccc(Cl)cc3)C3CCS(=O)(=O)C3)oc2c1 (configuration not stated) -38.5%
COc1cc(OC)cc(C(=O)Nc2ccccc2-c2nc3ccccc3s2)c1 0.335%
CN(C)c1ccc(C(CNC(=O)c2ccc(C(C)(C)C)cc2)N2CCOCC2)cc1 (configuration not stated) -27%
COc1ccc2[nH]c(C)c(CCNS(=O)(=O)c3cc(F)ccc3OC)c2c1 9.75%
CCCOc1cccc(C(=O)Nc2cccc(NC(=O)c3ccc(C(C)(C)C)cc3)c2)c1 -5.75%
COc1ccc(CCNC(=O)C2(c3cccs3)CCOCC2)cc1OC 0.221%
Cc1coc2cc3oc(=O)c(CCC(=O)NCc4ccc(Cl)cc4)c(C)c3cc12 20.1%
CCOc1ccc(OC(=O)c2cn(-c3ccc(C)cc3)c(=O)c3ccccc23)cc1 -10.9%
COc1ccc(-c2nc3c4ccccc4n(CC(=O)Nc4cc(F)ccc4F)c(=O)n3n2)cc1 13.7%
CCCCC(=O)Nc1ccccc1C(=O)OCc1cc(=O)n2nc(C3CCCCC3)sc2n1 -8.68%
COc1ccc(-c2cc(C(F)(F)F)n3nc(C(=O)Nc4cc(Cl)cc(Cl)c4)cc3n2)cc1 -11.7%
